From publication PMC10668032
This is one part of the list. At the low end of the ranking the order means little.

molecular target: SIX1-Q177R homeodomain (UniProt Q15475); assay: universal protein binding microarray; details: Universal all-10-mer PBM (8x60K, AMADID 030236), 300 nM GST-tagged protein, Alexa Fluor 488 anti-GST; buffer, salt, pH and temperature not stated; high values mean tight binding; most listed sequences are background and not binding sites; double strand, one strand shown

Sequence | binding signal [E-score]
ACGTAGCA | 0.00936
TCATACGA | -0.106
CATGGTTA | -0.105
ACTGCTGC | -0.0463
TTGCGCAA | -0.224
AGGCTCCG | -0.151
ATTCGCAA | 0.162
AACTGGCG | -0.023
ACCTGCCT | 0.198
GATCGCCA | -0.0725
ACACATTG | 0.13
AGATTACT | -0.172
AGGTGGCC | -0.165
CCAGGATC | 0.193
AAGGGTGG | 0.139
CATGCGCG | -0.0488
AATGGAAA | 0.0898
ACGTACGC | -0.0289
AAAGGGAC | -0.133
GCCAATCA | -0.232
CATACCAC | 0.0311
AAAGTAGG | -0.156
CTAATTAA | -0.012
ACTCCGTC | 0.0603
GATAACGC | 0.0566

Sequence | binding signal [E-score]
CATTCGCG | 0.00596
CTCTAAGC | -0.187
AAGGGCCT | -0.0968
CTGTTACA | 0.238
AATAGCGG | -0.156
CCAGGCGG | 0.107
ACTGTCTG | -0.135
ACTAACCC | 0.0819
CCAGTCAC | 0.122
TCCCCTCA | 0.144
ACCGTACT | 0.224
ATCGCTAA | 0.0811
TAGTTATA | -0.105
ATGTTTAG | -0.132
AAGCGAGA | -0.128
AAATGTGC | 0.02
CTCGGATC | 0.0314
TAGTCCCA | -0.147
ACTCACCT | -0.0467
AGTCCAGG | 0.0768
ATCTACTA | -0.107
ATGATCAA | -0.245
ACAATCCG | -0.172
AGGGCTTC | -0.24
CTGGATGA | -0.0322

Sequence | binding signal [E-score]
CTGCCTGC | 0.0272
ATAAGTGC | -0.092
GAGGGCGA | -0.0804
TCTATGCA | 0.0525
ATGATGGA | -0.158
ACGTCTGA | -0.00618
AGCAGAAT | -0.16
TCCTAGGA | 0.22
CTAAAAAG | -0.261
TCATGTAA | -0.0879
GCTCGTAA | -0.04
AGAATGAA | -0.211
AGAAATAC | -0.183
GAGGGTGA | 0.00643
GACGCCTA | 0.0183
ATGGGCGG | 0.0131
GACTAAAA | -0.156
ATACGCAC | 0.0577
ACTCTTCT | 0.114
ACACAACG | 0.121
GAGCTAGA | -0.13
CAATCCAA | -0.124
CCCATGGC | 0.0361
GACTATAC | 0.00243
CATGTGGG | -0.0923

Sequence | binding signal [E-score]
CCGTACAA | -0.0953
AAGTCACT | -0.085
CTTAGGGA | 0.151
CGGCGTCA | 0.219
CTGCGTAC | 0.0915
GACACCCA | 0.479
CGTCATAA | 0.0374
CACTCCAC | 0.191
CCGTCTAG | -0.0319
GGGGTTTA | 0.281
AGGGCTCA | -0.117
CCTTCAGC | -0.18
AACTTGCG | -0.0249
TACAACAA | -0.0349
TGATCGAA | -0.0513
GAAGGGCA | -0.112
ATTCAACG | -0.0463
GCTACGAA | -0.0335
GCACGAGC | 0.051
AAGCTATA | -0.236
TAATAGGA | -0.0923
CGATAAGC | -0.0308
CGGGCCCG | -0.0101
GCCCAGGC | -0.0578
AGAAAACT | -0.112

Sequence | binding signal [E-score]
CACGAATG | 0.00144
GGGTTTCA | 0.15
AGATCGAC | -0.0333
ATCAATTC | -0.18
AGAGAGCA | -0.138
GATGGCCC | -0.0244
AAAAAGCA | -0.293
AAGCGCAC | 0.0562
AAACTGGA | -0.0577
AGCAGGAA | -0.172
ACGGGTTC | 0.0664
CAATAGCG | 0.137
ACTGTCAA | -0.182
ATAGCTCG | -0.164
GCCCTTCC | -0.187
CACGCCAA | 0.143
AAAGATTT | -0.308
AGAGTGGC | -0.15
AAGAAGCT | -0.266
AACCTACA | 0.192
ATAAGAGC | -0.187
CCACGCGC | -0.147
GATGGTCA | -0.316
CAAAAAAA | -0.173
ACAAGCGG | -0.00626

Sequence | binding signal [E-score]
GTGCTCCA | 0.183
ATAACCCG | 0.18
CTCCTTCC | 0.0538
GCAGAGCC | -0.392
TGTTGAAA | 0.219
ACTAGCTC | -0.16
CTAGCTCC | 0.0368
AACACTAC | 0.381
ACTAAGCT | -0.0795
GAACCGGC | -0.0855
CTCCGTAC | 0.037
CACGATTA | 0.105
CTTCCAGA | -0.122
TGATCTAA | -0.0979
GCATCAAA | -0.084
AAACACGT | 0.307
ATACTAAC | 0.0329
AAATTGCT | -0.0646
GAAGAGGC | -0.103
CTGAGGAC | -0.119
TGAACACA | 0.173
AGGAGTCC | 0.094
GCCAGACC | -0.244
AGACGGTA | -0.04
AACGAGAA | -0.0893

Sequence | binding signal [E-score]
AACCCACG | 0.068
GCGCATAA | -0.149
AACACATT | 0.0624
AGGATATC | 0.0311
CCATCTCC | -0.0251
CAATTGAA | -0.165
AGAGGTAT | 0.221
CAGGGCAG | -0.196
ATGTAGAC | 0.00475
ATACAACA | 0.0398
GCTGGCCA | -0.145
GAACACCA | 0.468
CGCCTCCA | 0.019
CATCCAGG | -0.187
GCCCCCCC | -0.0199
ACGAACCT | -0.0708
CGCTCCAA | -0.0383
ACCGCAGC | 0.0693
AGTTGTAG | -0.228
ACCCAGAT | 0.139
ATCCGAAA | -0.0381
AACTGGAA | -0.0887
